# Laboratory results: publication PMC10726135
# This is one part of the list. At the low end of the ranking the order means little. Measured with an extract: partners may take part in the binding.
# Target: T1, HNF4alpha2 (COS-7 nuclear extract) (UniProt P41235)
# T1 sequence: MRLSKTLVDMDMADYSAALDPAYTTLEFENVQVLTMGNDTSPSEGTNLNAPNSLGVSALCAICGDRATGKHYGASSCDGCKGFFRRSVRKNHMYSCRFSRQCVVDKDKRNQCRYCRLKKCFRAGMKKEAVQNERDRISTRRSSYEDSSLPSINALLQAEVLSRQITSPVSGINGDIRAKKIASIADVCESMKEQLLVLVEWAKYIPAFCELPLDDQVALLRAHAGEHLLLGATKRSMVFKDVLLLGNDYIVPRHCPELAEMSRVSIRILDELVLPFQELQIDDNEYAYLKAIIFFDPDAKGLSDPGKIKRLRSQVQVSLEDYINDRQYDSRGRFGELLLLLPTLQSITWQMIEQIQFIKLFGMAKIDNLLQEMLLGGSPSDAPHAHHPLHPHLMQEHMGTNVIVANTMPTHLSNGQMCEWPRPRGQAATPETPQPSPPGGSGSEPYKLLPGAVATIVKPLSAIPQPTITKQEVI
# Assay: protein-binding microarray
# Conditions: COS-7 nuclear extract on double-stranded Agilent 4x180k PBM; binding buffer, salt, pH and temperature not given; high values mean tight binding; double strand, one strand shown; sequences stand for … in …GCCTAGGGAGATTAGAGTATCGGTCGA
row,Sequence,binding signal (log2 normalized intensity)
1,AAACTCTGAAGGCAAATTCTTAGAATTGCA,-0.775
2,GCTGAATTCCCATCTAAGACTTTATTTGAA,-0.261
3,GCATCTGTTTTTATTTCCCCTTTCTGTTGG,2.36
4,AAGCATTTGGAGATTGCCACCTTGGTGAGA,0.715
5,AGTCAGGTACCTGCTTCTGCCCCAGTTAAC,3.09
6,TGTTTAACAGAGATTTGCAGCTCAAAGTGC,0.949
7,CCCAAGTAATAGCCGTTTCTGTCCAGAGTT,0.304
8,AGATGCTTTGAAGTGTAAAAGGATCATGGA,0.452
9,GCGCGTGTTCCCGTCCGTGCGGTCGGGCGC,-0.786
10,AATGATGTTTACATTCCAGAAAAGGCCTAA,0.346
11,AAACACCCACCTTGTTATCTTGTCTCTTCT,1.44
12,CAGTTTGTTCTTGGGGCCCACAGAGTCCAG,2.44
13,GTACAAAGCCCCATATTCATAGACTCTGCA,0.766
14,GTGTGAAGTAATCCCCAGTATAAACAACAC,1.68
15,ATCTGAGTGTCAAAAACAATACCAGGAGCT,-1.16
16,GCCACGGGAAAACCTGACTGCGCTCCCAGA,-1.2
17,GTTCTAGCCCTGGTGAGTCAGTTCCCCTGC,1.5
18,AGTCTGTGGAGACACTGCCAGTGTCTCAGG,-0.608
19,CCAGGGACTTTGAACACTTCTTTGTTACTT,2.44
20,CACAAATTGGAGAGCATCTTGGACTTGGGA,2.73
21,CCCAACCAAAAACAAAACTGGTCATACAGC,-1.15
22,GGGGATTCTTTCTAAAGTGACTTAGCAGGA,0.943
23,ACTTTTGCAATGTTTCCAAACCCCTCGGGA,0.897
24,CAAGATAAGATACGAAGGGTTTAAAGGGCA,2.43
25,GTTGCAGCATTGTTGGGATTAAGGAGAAGG,-1.08

row,Sequence,binding signal (log2 normalized intensity)
1,CACCTCCCTCAGAGCTCAGATGAACTTTGC,5.96
2,ACTTTGGACTTGGGACTTTCGAGTTAATGC,4.12
3,AAAGGCTGTCACACTTGCCCTTTGCCCTCA,8.34
4,CAGATAGATGGTCAGTGAACTGTGGTTGAC,1.56
5,ACAATTGTCCCCAAGATTGAGGCCAGCAAA,-0.859
6,TCATTGCCTCTGGGCTTTGATGGACATTGC,3.19
7,CAAGGGGGTGGTGAAATGGGGGAAGGGCTG,-1.14
8,TAAGCCACAGACAAATATTTGCTGTTACTC,-0.954
9,CTCAATCTTTGCCCTCTTGGTATCAGCTTT,2.23
10,AAAAAGTCCCTGGTCCCATAGGAAAGTGAG,-0.855
11,CATCAAAGCCAGGACTTCTAGAGTGAGCCA,-1.09
12,GGGGCTGGGCCCCACAGTGCATCTGATAAG,-0.518
13,GAAGAGGACTTTTTTTTGCCTAACTGCTGC,-1.08
14,GTGAAGGACACAGAATGACTTTCAGAAAGT,0.537
15,GTTTCTCCACAGCCTCACCAACAGGATTGT,-1.14
16,AAAAACACCTGGTTCCTTGCAAGATAAGGG,-1.08
17,GCCTTAAGAGTCAAAGGGCAAAGGAATAAA,1.58
18,TGCTCCTGCACTTTTGTGCTCTGTACCCGG,2.23
19,CCTTCGTTTGCTTTTCCTTATCATCACATG,1.55
20,GTGGGAAAATTCCCCAGGAGGAGATAAGAT,-1.22
21,GCGCCCCCGTGTGGCCGCGAGCACCGCGCG,2.55
22,TTTGCCCTCTCTTCAGCACCTTTTAAAATA,0.354
23,GCCTCCACTCCTCCTCCTTCCCTCCTGCTC,1.3
24,CAATCTTGTTGGGTCAGTTTATCGAAAATC,1.66
25,GCAATCACAAGGAATGCCCTTATCTCCCAG,0.579

row,Sequence,binding signal (log2 normalized intensity)
1,GGGAGGCCGCTGACAAGCAGCCTCAGTGGC,-1.02
2,GGGGCCCACTGAGACGGGCTGAGGATGAGG,-1.14
3,CATCTGGGGAAAGTGCAAGGGCCCAGAGGA,-1.04
4,GTGAAACACAGGACTTGATCCAGGGCAAAG,-1.11
5,GCTGGAATCTTGATAATGCCCTGACCCTAG,2.47
6,GAGGACTTTGGCCTTTTGTGAGATATGGAC,3.45
7,CGTGAAAGTTAACTTTGTAACTAACAACTG,0.627
8,CTAAATGGTAGGATTGTTTGGGGATTACAC,0.61
9,GCAAAACCTGATGTTTGGACAGTGTGACTC,0.907
10,ACTGATGCTCATAGCTACGGGTGACCTTGA,3.58
11,GAGGTGTCAGCCACCCCTCCTCCTGGGGGC,2.64
12,TTTATTAGGGGTCAGCAAAGAACTCCCCAG,1.73
13,CCCAGGCCGTTGGACCAAGCTCTAGCATCC,-1.17
14,GGGTTTGACCGTTCTCTCCGGGTAAAGGTG,1.87
15,CACAAAGTACAGCTTTTTGTTTGTGTAAGT,2.05
16,CAGTGTTTACCGGATGAAAAGTGTTTGCCA,1.49
17,CCTCCCCGCCACCCCCCAGAGGGCCATCTA,5.83
18,TCAGGCTGAGGTGCTCTCAGATAAGAGATG,-0.855
19,ATTAACCAAAGCTACACAGATAAGCCATTC,-1.15
20,GGAATGGCAGTGCTTGTCCAAGATGGCAAT,-1.17
21,CTGCACTGACACTGTCCCAGCTGAGATTCA,-1.1
22,CCGATCCTTACTATTAGGTCTTTGAAGTTG,1.68
23,ATCAGCAGCCCAGCATACCATTCCCACCCC,4.29
24,TCAATGACTACCTGTTACCCACCTGATATT,1.16
25,TCACCTGGAGAAGCAGAAGCTGCACACATG,-1.09

row,Sequence,binding signal (log2 normalized intensity)
1,GGGTCATTTTATGGGAAAACAGAATGGTCT,1.54
2,CTAGTTCATTAAACATGTTTACTCTGGTCC,1.61
3,CTGGTGGAGGGGACCTTTTCCTCGGGTGTC,0.956
4,TGACACAGCCACAAAAACCAAAGGTCACTT,4.39
5,ATGCAAACAGCAGCCACATTCCATGAGCTG,-1.11
6,TTTTTAGATAGTGACTTGAAAGGGACTTAG,0.421
7,TTTGCAAGTGGAGATTTCAGCCGCTTTGAG,-1.15
8,ACCCAGAACCCCCAGGTCACCCACAACCTA,4.08
9,TTTTAAAATAGATAAGTCCCTAAGAGGAAT,-0.74
10,AAAGCCAGCTGTCTATCCTTATTTATCTTC,-1.13
11,CTCTGAGATTCGGTGAGGGATTGTTTAGGT,0.957
12,CTCTTGTAATTTAAGTGGTTCACAAACATT,1.73
13,CAAGGCAGCTCAGCTAGTGAGATACGGCCT,-1.1
14,TCTGTTTGAGGTTCACTGGGGAGACTCTCT,0.44
15,TTTTTTCAAGTGTTAGCTGTTTCCAAATAT,1.42
16,GCCCAGCAGAGCAGTTTAGAGAAAGGGTCA,2
17,GAAATACAGTAGACTTTTTTTTTCTTAATT,-0.841
18,GGAGCTGTGGGCCTCACACCCTCTAGGGTA,-1.14
19,TTTTAAATACCTTTTTGGGACTGATAACTT,0.85
20,CACCTTTGAAATCTCAAATAGCTGGGTCTC,0.905
21,ATTACTTCTCAACTGATATGGCTCTGTTTT,1.08
22,GAGCTTCTGTCTTGGACTGCGAAAGATAAA,-0.124
23,GGCCAGGGAGTACACCCCTCACTCCCTCCA,2.85
24,CCTCCCAGGGACACATGCCCCTTCCCTCCC,4.11
25,TCCAACCCTCCGTTTCTCTGGGCCTGATAG,-1.18

row,Sequence,binding signal (log2 normalized intensity)
1,CCTGTGACCAAGAATGCCTAACCTCCTAGG,-1.11
2,ACAAAGCCTGGGGTTTGGCTCCAAGGCTGA,-1.13
3,GCATGACTACATTCTTTGAAGACTAGGCTC,-1.06
4,CCACTGAGACGGGCTGAGGATGAGGACTTT,2.83
5,AACCATCTGGCTTGGCCCCCGGACCCAAAG,4.03
6,AAAGCCCATTAAATCTTCCCTCCTGTGAAC,0.779
7,TCTGATACATTGGACAACTGTACTTTGGAC,7.2
8,GATAAGGCGTCTTATCAGCCCCCATGTCAG,3.31
9,TTCTGTTCAATGGTGCTTTTGATATTGTTG,2.06
10,GACTCGAATGCGAACCTGTCTCCAGAGGAC,-1.03
11,TAGTTAGGGCCTTGCAGGGGGCCTCCTGCC,-1.03
12,TTGGGGCTGATGTGCACAGTCCACAGAAAC,0.0465
13,CATTCTTTCCAGCTTTGATAGTCTGCTACC,1.59
14,GCAACTGGTGAGCAGGTTAATTATAATCGC,0.694
15,GAGAACAGGTTCATTCTTTAAGTGTGGGGT,1.46
16,TACATTTGACTGAGGTGCAGGACAAAGTGT,1.03
17,TTCCCCATATTCGTCCAGTTACTGAAAGGG,0.807
18,GGCATCTAACCTTCGTCCTTGCCCCTGGCT,2.6
19,AGTCAATCCCGTGGACTTTGCCTGCCCATC,4.01
20,CAGCAGGAGACCTGAAACTAGACCAAGAAG,-1.18
21,GGATTGTTACATCATAGTGTTTGCCTTATT,1.37
22,CTTAGCAGAAGCCCTCCTGGACATTGTGTG,1.52
23,TCGGGGCATGCACTGTTTGCCATAGATCCC,-0.958
24,CTCATTTATTATTTGTCTGGGTTATCAGTC,1.97
25,CGGGTGTTTCTGGGAGTTGTGGTCCGCAGG,1.01

row,Sequence,binding signal (log2 normalized intensity)
1,CCTTTGATCTCCGTGTTTGGAATTGTGTCA,2.3
2,TCAAGTGTGCACACTTAGAAAATGCCCTCA,2.93
3,TCTGCTGTTTGTTTCACTAATGTAGATTTT,1.1
4,TTCAGAGGCCAGCAGTGCTTTTCCCAGGAA,-1.12
5,ATAGACTTAAGTCTGAATTCTAGTCCTATC,-1.13
6,CTTTTCCTTTTTGCATGAGAATCTGACCTT,4.25
7,TCCCATCTGTGCTCATTATTATCAGCAAGA,-0.325
8,GGCTTGATCCCTGAACTTTGCTCCCACCCT,5.57
9,TCAGACCTGACCTTTGGATTCCCAGATGGA,5.09
10,TTGCTTAAACCTAGCTACTAGCCATTTCGG,-1.17
11,AGTTTTGTTATCTCTGCTTGCAATTTTTGT,1.55
12,GGCCTGATAGATTTTGCATTGCTCACATAG,-0.988
13,GGAAGGTATTGTCATTATTCCAGCTTTACA,0.00765
14,ATGTGGTATTAACATGTAAATATGACCTTT,7.12
15,GCCTGCAGGTGAATGGAAACAAGAGAGTCT,-1.09
16,CGCAGTCGCCTGCAAGACAATACCTTCACT,-0.992
17,CCATCCTTGTTTTGGGGGTTGGTATTACAA,1.52
18,GGGATGGACTTTGGCCCTCAGCCCAATGTG,6.2
19,TACGTTTGTGATACACCTTGCCTGGCTACC,0.413
20,GAACAGGTCAAAGGTCAGTTTCTTTAAGAC,7.04
